According to the supplement of paper PMC10126150:
Sequences with one replicate were seen in a single cluster, so their values are uncertain.

System: ATP
Assay: switch fluorescence ratio, 500 uM ATP over buffer (Cy3 cluster intensity, sum of 5 cycles each) (fold (ratio)); higher = stronger signal-on switching upon ATP binding; sequences stand for … in TCGTCGGCAGCGTCAGATGTGTATAAGAGACAGTTTTTTTTTTTTTTTTTTTTTTTTT…TC
Conditions: aptamer strand: ATP DNA aptamer (quencher-CACCTGGGGGAGTATTGCGGAGGAAGG + anchor), 100 nM annealed; ATP concentration: 500 uM; one replicate
Procedure, shortened: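 Switching-strand clusters labelled with Cy3 on a modified Illumina MiSeq flow-cell were annealed to 100 nM quencher-labelled ATP aptamer, imaged in selection buffer, and re-imaged after 15 min with 500 uM ATP at 22 °C. This was done over five cycles with NaOH stripping and re-annealing in between. The fluorescence ratio is summed target-cycle over summed buffer-cycle Cy3 intensity per cluster, averaged per switch-domain sequence, excluding clusters outside 100-1000 RFU.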
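Also: ATP exposure 15 min at 22 °C before imaging.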

| Sequence | switch fluorescence ratio |
| --- | --- |
| TGATCGTGTC | 1.05 |
| ATGGTGGTAT | 1 |
| CATGCTGAGC | 0.996 |
| CTTTTGCCGG | 0.987 |
| AGCGTATTTG | 0.999 |
| CCAAAATCGT | 0.989 |
| ATACGATGTG | 1.02 |
| CGATTCAGTG | 0.959 |
| ATGAGGGCGT | 0.99 |
| GAGGCGTCCC | 1 |
| AGAATGTTAT | 1.02 |
| TTGCATACGA | 3.16 |
| AGGAGGAGGT | 1.08 |
| CCGATAGGGT | 0.974 |
| TGGCGTCACG | 0.999 |
| AGCTTTATAA | 1.03 |
| ATAAGTTCAG | 1 |
| AAACGAATGT | 0.961 |
| ATTGAAGTTA | 1.05 |
| TGGCCTAACC | 1.02 |
| TCGGGTTCGT | 1.02 |
| TTTATGGATG | 0.96 |
| TTCGCCAGGT | 1 |

| Sequence | switch fluorescence ratio |
| --- | --- |
| CAGCTTCGGC | 0.959 |
| ATGTAATGAC | 1.02 |
| TTCATAGTTT | 0.963 |
| GCTGGCAAT | 1.04 |
| TGCAACGTAA | 1.26 |
| ACAGTGGTTC | 0.962 |
| TTTCACCTAC | 1.33 |
| GTATCTGTCG | 1.01 |
| TTGCGTTGAG | 1 |
| TGCGTCGTCC | 0.94 |
| ATGTCACTGG | 1.07 |
| AGGCCTGGGA | 0.971 |
| ACTTGGTCCC | 1.02 |
| GCATTTTTG | 0.977 |
| GCACTTATTG | 0.99 |
| CGATACTTC | 1.12 |
| GTAGCCAAGT | 1.03 |
| AGGCGCATGG | 1.05 |
| AATCAAGCTC | 0.978 |
| GCAATATGGC | 1.43 |
| TCCGCTGGGG | 1.97 |
| AGCTTGGCTC | 1.08 |
| ATGGTGAGTG | 1.12 |

| Sequence | switch fluorescence ratio |
| --- | --- |
| AGTAAGCTTG | 0.986 |
| GGTATGGTA | 0.999 |
| AATCGTGTTC | 0.953 |
| CTTTAGTACT | 1.01 |
| AGTACATTTA | 1.01 |
| AAACTCAGGA | 0.993 |
| GCTTGTGCTT | 1.01 |
| TACACGTGGC | 1.05 |
| TCTTTAGTTA | 1.24 |
| AAGCTTGAG | 0.976 |
| CTGGAGTATG | 0.996 |
| TTCTTCGCGC | 1 |
| TAAGGTCACG | 1.01 |
| ATAGTCCTAC | 1.05 |
| GCAGCTGTCA | 0.97 |
| GATCCATGAC | 1.04 |
| GAATGACCAG | 1.01 |
| TGCGTCGGCA | 1.05 |
| CCTTAAGGGC | 1.02 |
| CATCTCGT | 1.01 |
| GTGAGCAACT | 1.03 |
| CATGGCGGTT | 0.987 |
| GACTGATTAC | 1.17 |

| Sequence | switch fluorescence ratio |
| --- | --- |
| GTGTGGTACT | 0.955 |
| AAGAAAGATT | 1.12 |
| GGTGGAGCTT | 0.964 |
| TCTTGCTGGT | 0.978 |
| TTCCGCGGTT | 1.1 |
| TCTTATTTCT | 1 |
| AGCTGGTGTC | 1.05 |
| AGTGGGAGGC | 1.05 |
| CGCGACAGGC | 1.02 |
| TTACGCAGAG | 1.28 |
| TAAGTTGACA | 1 |
| GGCTCAGTCA | 0.999 |
| GTCGGCGCTG | 0.969 |
| CAGCCTAACT | 1.02 |
| AGCTGTTATG | 0.947 |
| GGGCGCAATG | 3.83 |
| CGGAGGCCGG | 1.11 |
| CCAGCGAACC | 1.47 |
| CTAAGTCTGG | 1.01 |
| AACCTCGGCA | 1.82 |
| ATACGAAAAA | 1.33 |
| TGATTAGTG | 1.03 |
| GGGAGTCTAC | 0.956 |

| Sequence | switch fluorescence ratio |
| --- | --- |
| GCAAGGTTAC | 1.33 |
| TGCCATCTCC | 1.18 |
| TCAAATTGTA | 1.05 |
| TTTAACTATT | 0.975 |
| TGAAGGAATA | 1.07 |
| GGATGCGAGC | 1.03 |
| TGATTCACGT | 1.01 |
| GGTACCCCTG | 1.08 |
| CGTTGACTTA | 1.02 |
| AATGCCACT | 0.999 |
| TCCTCACGAA | 2.61 |
| AGAAACTGTG | 1.03 |
| TGATTCATTA | 0.971 |
| TAATATATAA | 0.987 |
| GTTTCTAAGA | 0.997 |
| CTGAGAAGGG | 0.968 |
| ACTACTGGGG | 1.09 |
| TCTGAGCCTT | 1.02 |
| TTATCCAGGT | 0.939 |
| TTCGGCAGAT | 0.989 |
| TAAGCTGTCC | 1.14 |
| ACGGGCCGTG | 0.99 |
| AGAATAGTGT | 1.01 |

| Sequence | switch fluorescence ratio |
| --- | --- |
| GGCCAAGCAT | 0.981 |
| GGAAATAGAG | 1.04 |
| GTATGGCAAA | 0.976 |
| AGGAGTAAAG | 0.962 |
| GACTCTAGCA | 1.49 |
| AGAGTACCGG | 0.934 |
| TAATGGTGTT | 1.02 |
| AACAGATGCC | 1.02 |
| TTTACATTTA | 1.01 |
| TTGCTGAGTA | 0.973 |
| TTGGTAATTT | 0.969 |
| ACCGTTTTTG | 0.988 |
| ATATAGCGTA | 1.04 |
| ACTATTGAAC | 0.95 |
| CGGTGAAAAG | 1.01 |
| GCGGCTAATT | 1 |
| CTGGGGGCTA | 1 |
| ATCAGGCATG | 1.02 |
| CAGATTCTTG | 0.979 |
| CGACATCCGT | 1.06 |
| ACAGAAACGT | 1.08 |
| TTATCAGATC | 0.976 |
| TAGATGTTGG | 0.999 |

| Sequence | switch fluorescence ratio |
| --- | --- |
| ACGGTTACCC | 1.63 |
| AGAATTATTA | 1.01 |
| CTCCATTAGC | 1.28 |
| CCGTTATGGC | 1.33 |
| TACTAGATTT | 1.01 |
| CATTTCGTGC | 0.986 |
| AGGAGAAGTT | 1.04 |
| CATGTGTGCT | 0.968 |
| ATTGGGTGGG | 0.97 |
| TACGGTTCTG | 0.993 |
| GCACCCGCTC | 1.17 |
| AAAGGCAGTT | 0.99 |
| ACAACTGGAT | 0.929 |
| CCGGGCGGAG | 1.06 |
| AGCGAGCCCG | 0.992 |
| ACCGGGCTAA | 1.07 |
| GACCGATTAC | 2.06 |
| CCTGTCTGCA | 1.51 |
| TTATGAGTGT | 1.02 |
